Among all 310,000 compounds or so, about 14,000 (4.5%) showed an effect of 50% or more. The effect is printed as a negative number. The list shows a part of the results.
target: human ether-à-go-go-related gene (hERG) potassium channel (human, UniProt Q12809); assay: primary screen, population patch clamp on CHO cells stably expressing hERG
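Also: peak tail current of the secondary pulse compared with the same well before compound.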

Chain of human ether-à-go-go-related gene (hERG) potassium channel (Q12809 whole entry, looked up): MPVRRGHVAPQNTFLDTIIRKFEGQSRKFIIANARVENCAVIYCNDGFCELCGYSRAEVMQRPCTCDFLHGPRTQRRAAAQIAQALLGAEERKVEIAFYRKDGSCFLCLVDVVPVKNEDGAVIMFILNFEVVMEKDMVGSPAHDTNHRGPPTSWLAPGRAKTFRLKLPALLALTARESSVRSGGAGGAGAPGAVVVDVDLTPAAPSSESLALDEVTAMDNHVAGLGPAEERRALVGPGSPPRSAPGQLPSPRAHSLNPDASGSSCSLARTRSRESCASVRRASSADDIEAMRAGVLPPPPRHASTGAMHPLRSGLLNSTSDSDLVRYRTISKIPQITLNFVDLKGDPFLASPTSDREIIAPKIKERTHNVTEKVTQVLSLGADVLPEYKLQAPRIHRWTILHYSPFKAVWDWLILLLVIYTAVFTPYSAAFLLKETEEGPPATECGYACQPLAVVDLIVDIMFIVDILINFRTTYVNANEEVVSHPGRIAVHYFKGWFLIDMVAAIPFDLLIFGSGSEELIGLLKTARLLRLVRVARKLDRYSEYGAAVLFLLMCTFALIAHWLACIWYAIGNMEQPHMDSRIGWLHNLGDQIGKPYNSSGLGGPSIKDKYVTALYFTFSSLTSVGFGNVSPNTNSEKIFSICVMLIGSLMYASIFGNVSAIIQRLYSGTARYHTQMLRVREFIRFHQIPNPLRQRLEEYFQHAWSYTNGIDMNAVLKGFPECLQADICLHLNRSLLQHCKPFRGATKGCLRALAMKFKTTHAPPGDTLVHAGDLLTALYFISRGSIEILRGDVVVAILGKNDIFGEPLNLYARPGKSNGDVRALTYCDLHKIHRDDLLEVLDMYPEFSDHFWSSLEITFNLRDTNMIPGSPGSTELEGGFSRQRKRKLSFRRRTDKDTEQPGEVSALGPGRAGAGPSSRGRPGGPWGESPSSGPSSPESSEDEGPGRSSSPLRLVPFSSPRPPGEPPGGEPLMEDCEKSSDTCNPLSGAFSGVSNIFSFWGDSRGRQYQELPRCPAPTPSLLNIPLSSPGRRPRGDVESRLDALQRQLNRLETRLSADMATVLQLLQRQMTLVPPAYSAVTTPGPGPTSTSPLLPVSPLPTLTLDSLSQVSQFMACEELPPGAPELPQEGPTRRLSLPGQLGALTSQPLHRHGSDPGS

Row | SMILES | hERG current change (%, negative = inhibition) at 10uM [%]
1 | COc1cc(OC)cc(C(=O)Nc2ccc(S(=O)(=O)Nc3nc(C)cc(C)n3)cc2)c1 | 22.4
2 | COc1ccccc1C(=O)NNC(=O)c1cccc(F)c1 | 6.07
3 | CCOC(=O)Cc1csc(NS(=O)(=O)c2ccc3ccccc3c2)n1 | 46.9
4 | COc1ccc(CNC(=O)CCS(=O)(=O)c2cccc3nonc23)cc1 | -16.2
5 | CCOc1ccc(N(C)S(=O)(=O)c2ccc3[nH]cc(C(=O)NCCOC)c(=O)c3c2)cc1 | 11.3
6 | Cc1ccc(-c2ccc(CCC(=O)O)n2-c2cccc(O)c2)cc1 | 12.2
7 | O=C1OC(c2cccc([N+](=O)[O-])c2)C2(CCCC2)C(=O)C12CCCCC2 (centres unmarked) | -14.3
8 | COc1ccc(OC)c(/C=N/NC(=O)C(=O)N/N=C/c2cc(OC)ccc2OC)c1 | 25.4
9 | Cc1ccc(NC(=O)CSc2nnc(C)n2-c2ccccc2)cc1 | -3.7
10 | O=C(NCc1ccccc1CN1CCCC1)c1cc2ccccc2o1 | -69.4
11 | O=C(Nc1ccc(Cl)cc1)Nc1nc(-c2sccc2Br)cs1 | 3.97
12 | Cc1cccc(NS(=O)(=O)c2cnc(Cl)c(Br)c2)n1 | -9.33
13 | CCCOc1ccccc1/C=C(\C#N)C(=O)Nc1cccnc1 | -41.1
14 | COc1ccc(Cc2nc3ccc(C(=O)N(C)Cc4cc(C)[nH]n4)cc3o2)cc1OC | 20.8
15 | C#CCC(NC(=O)c1ccc(C#N)cc1)C(=O)NCCC (centres unmarked) | 6.83
16 | CCOC1C(=O)NC(=O)N1Cc1ccccc1 (centres unmarked) | 5.05
17 | O=C(NCc1ccco1)C1CCN(c2ccc(N3CCOCC3)nn2)CC1 | -13
18 | Cc1nc(-c2ccc(Cl)cc2)sc1C1(C)CC(c2ccccc2F)=NO1 (centres unmarked) | 12.5
19 | CN(C)c1ccc(C(=O)/C=C/c2cccnc2)cc1 | -2.5
20 | O=S(=O)(c1ccc2c(c1)CCN2)N1CCOCC1 | -2.2
21 | CC(C)c1nnc(SCC(=O)Nc2ccc3c(c2)OCO3)n1C | 4.79
22 | COc1ccc(CCNC(=O)c2ccc([N+](=O)[O-])cc2)cc1 | -32.6
23 | O=C(CN1CCN(Cc2ccc(F)cc2)CC1)NCc1ccccc1 | -27.5

Row | SMILES | hERG current change (%, negative = inhibition) at 10uM [%]
24 | CN(C)S(=O)(=O)c1ccc2c(c1)c(=O)c(C(=O)NCCCN1CCCCCC1)cn2C | -4.72
25 | Cc1ccc(C)n1NC(=O)c1ccccc1 | 15
26 | O=C(CC1C(=O)NCCN1Cc1ccccc1C(F)(F)F)NCCN1CCOCC1 (centres unmarked) | 9.8
27 | COc1ccc(CN(C(=O)c2cc3ccccc3oc2=O)C2CCS(=O)(=O)C2)cc1 (centres unmarked) | -18.9
28 | CCCCNC(=O)CC1NCCNC1=O (centres unmarked) | 22
29 | O=S(=O)(NC1=NCCCCC1)c1ccc(Cl)cc1Cl | -2.95
30 | Cc1cnc(C(=O)OC(C)C(=O)Nc2ccccc2-c2ccccc2)cn1 (centres unmarked) | -5.89
31 | CCN(CC)CCCn1c2c(c(SCC(=O)N3CCc4ccccc43)nc1=O)CCC2 | -78.6
32 | CC(=C/c1ccccc1)/C=N/n1c(-c2ccncc2)n[nH]c1=S | 0.682
33 | CCc1cccc(CC)c1-n1c(SCC(=O)N2CCc3ccccc3C2)nnc1-c1cccnc1 | -19.8
34 | Cc1cc(C)n(CCNS(=O)(=O)c2ccccc2)n1 | 15.6
35 | C=CCc1cccc(Cl)c1OCCCNC1CCCC1.O=C(O)C(=O)O | -30.3
36 | Cc1ccc(NC2c3ncccc3C(=O)N2Cc2cccs2)cc1C (centres unmarked) | -2.77
37 | CCOc1ccc(N(C)Cc2cc(=O)oc3ccc(OC)cc23)cc1 | 12.4
38 | CCOC(=O)c1cnn(CCOC(=O)C(C)(C)C)c1NC(=O)C(C)(C)C | 12.8
39 | CS(=O)(=O)O.OC(c1cc(C(F)(F)F)nc2c(Cl)cc(Cl)cc12)C1CCCCN1 (centres unmarked) | -23.8
40 | Cc1ccc2nc(SCC(=O)Nc3ccc(F)cc3F)[nH]c2c1 | 7.57
41 | CCCOC(=O)Nc1cccc(C(C)=O)c1 | 7.32
42 | NC(=O)c1ccccc1O | 20
43 | CC(=O)OC(C#CCN1CCOCC1)c1ccccc1 (centres unmarked) | -6.64
44 | O=S(=O)(CCN1CCOCC1)c1ccc(OC(F)(F)F)cc1 | 2.9
45 | CN(C)S(=O)(=O)c1ccc(Cl)c(NC(=O)COC(=O)CNC(=O)c2ccco2)c1 | -4.39
46 | CSc1ccccc1NC(=O)CSc1nnc(CNC(=O)c2ccccc2F)n1C | 11.2

Row | SMILES | hERG current change (%, negative = inhibition) at 10uM [%]
47 | COc1ccc(CCNC(=O)CSc2ccc3nnc(CCNC(=O)c4ccc(C)cc4)n3n2)cc1OC | -5.17
48 | Cc1cc(Oc2ccc(C#N)cc2)nc(N2CCOCC2)n1 | 1.53
49 | CCN(CC(=O)Nc1c(F)cccc1F)C(=O)C1CCN(c2ncnc3sc(C)c(C)c23)CC1 | -57.8
50 | COc1ccc(CNc2nc(NC(C)=O)nn2-c2ccccc2)cc1 | 9.65
51 | Cc1onc(-c2ccccc2Cl)c1C(=O)Nc1ccc(S(=O)(=O)Nc2nccs2)cc1 | 25.5
52 | COc1ccc(NC(=O)C2CCN(S(=O)(=O)c3c(C)noc3C)CC2)cc1OC | 14.6
53 | COc1cc(OC)c(OC)cc1CNC(=O)c1ccc(S(=O)(=O)N2CC(C)OC(C)C2)cc1 (centres unmarked) | -11
54 | O=c1cc2c(nn1Cc1ccccc1Cl)-c1ccccc1CC2 | -12.5
55 | CCCCOc1ccc(-c2nnc(-c3ccncc3)o2)cc1 | -10.2
56 | COc1ccc(OCC(=O)N2CCN(S(=O)(=O)c3ccccc3[N+](=O)[O-])CC2)cc1 | -31.2
57 | Cc1ccc2c(c1)N(C(=O)CCC(=O)NCCCN(C)Cc1ccccc1)CCO2 | -68.3
58 | O=C(CSc1nnc(-c2ccccc2)n1-c1ccc(Cl)cc1)N/N=C/c1ccco1 | -55
59 | O=C(c1ccccc1)c1ccc(C(=O)N2CCN(c3ccccc3Cl)CC2)cc1 | -13.3
60 | C=CCn1c(SCC(=O)Nc2ccc3c(c2)OCO3)nnc1-c1ccccc1O | -12.3
61 | CCOC(=O)N1CCN(C(=O)CSc2nnc(COc3ccccc3)o2)CC1 | -11
62 | COc1cccc(CN(Cc2cccnc2)S(=O)(=O)c2ccc(-n3cnnn3)c(C)c2)c1OC | -25.5
63 | CCCC(CCC(=O)Nc1ccc(C(=O)OC)cc1)C(=O)O (centres unmarked) | -10.6
64 | Oc1ccc(NCc2ccc(OCc3ccccc3)cc2)cc1 | 15.8
65 | Cc1cccc(-n2c(-c3ccco3)n[nH]c2=S)c1 | 15.7
66 | CCC(C)C(=O)Nc1nnc(SCC(=O)NC2CCCC2)s1 (centres unmarked) | 14.8
67 | CC1(C)OC2C(CO)OC(n3cnc4c(=S)nc[nH]c43)C2O1 (centres unmarked) | 13.6
68 | COc1ccc(-n2c(SCC(=O)NC3CCCCC3)nc3ccsc3c2=O)cc1 | -21
69 | CCN(C(=O)COC(=O)CNS(=O)(=O)c1ccccc1)c1ccccc1 | 13.1

Row | SMILES | hERG current change (%, negative = inhibition) at 10uM [%]
70 | CCN(CC(=O)Nc1cc(Cl)ccc1C)C(=O)Cc1sc(C)nc1-c1ccc(F)cc1 | -19.2
71 | COc1ccc(OC)c(C(=O)Cn2nnc3ccccc3c2=O)c1 | 9.14
72 | O=C(CCc1nc2ccccc2c(=O)[nH]1)N1CCN(c2ccc(F)cc2)CC1 | -68
73 | CCOC(=O)c1nc2sc(C)c(C)c2c(=O)[nH]1 | -2.21
74 | COc1ccc2oc(C(=O)OCC(=O)Nc3cc(S(=O)(=O)N4CCOCC4)ccc3OC)c(C)c2c1 | -8.22
75 | CCCCC(=O)NC(c1ccco1)c1c(O)ccc2ccccc12 (centres unmarked) | -2.6
76 | CC1=CC(C)C(CN(CCC[N+](C)(C)C)C(=O)Nc2ccccc2)C(C)C1.[I-] (centres unmarked) | 22.7
77 | Cc1sc(NC(=O)c2ccco2)c(CN2CCN(c3ccccn3)CC2)c1C | -7.81
78 | CN(C)c1ccc(C(=O)NC2CCCc3ccccc32)cc1 (centres unmarked) | 7.5
79 | CC1(c2ccc(Cl)c(Cl)c2)NC(=S)N2C1NC(=S)N2c1ccccc1 (centres unmarked) | 10.9
80 | CCOC(=O)c1sc(=S)n(C)c1NC(=O)c1ccccc1C | 4
81 | CNc1sc(C(=O)c2ccccc2F)c(N)c1-c1nc2ccccc2s1 | 10.5
82 | CCOc1ccccc1NC(=O)Nc1ccc2c(c1)OCO2 | 4.49
83 | CC(C)CN1C(=O)NC(NC(=O)c2cccs2)(C(F)(F)F)C1=O (centres unmarked) | -17.8
84 | CCN(CC1CCCO1)C(=O)CCc1nnc(CCc2ccccc2OC)o1 (centres unmarked) | -3.32
85 | COc1ccc(CCc2nnc(CCC(=O)NCc3cnc4ccccn34)o2)cc1 | 13.3
86 | Cc1ccc(NC(=O)CSc2nn(-c3ccccc3)c(=S)s2)cc1S(=O)(=O)N(C)C | 13.9
87 | CC1Cc2nc(SCC(=O)N3CCOCC3)n(-c3ccccc3)c(=O)c2S1 (centres unmarked) | 5.44
88 | CC(CCc1ccccc1)NC(=O)c1ccc2nc(N3CCOCC3)sc2c1 (centres unmarked) | 3.85
89 | Cc1ccc(C)c(N(C(=O)c2csnn2)C(C(=O)NC2CCCCC2)c2ccccn2)c1 (centres unmarked) | 1.87
